Experimental data taken from PubChem BioAssay AID504332 (National Center for Advancing Translational Sciences (NCATS), 2011).
About 31,000 (8.9%) of roughly 350,000 compounds were called active. The inconclusive results got no clear call from the source; some entries with a clear call stand among them for comparison. Calls come from the whole dose curve; as a rule, active = well fitted inhibition curve with a large enough effect; inconclusive = small, poorly fitted or top-dose-only effect; inactive = no such curve, though single readings can be large or run the other way. A potency beside an inconclusive call is a rough fit, not a confirmed value.

target: Histone-lysine N-methyltransferase EHMT2 (Homo sapiens) (UniProt Q96KQ7); test: qHTS Assay for Inhibitors of Histone Lysine Methyltransferase G9a; conditions: G9a H3K9 monomethylation, AlphaScreen, 2 h; activity, negative = inhibition: at 59 µM (top of the series) unless noted; note: nearly all actives have a fitted effect of over 75% in size
Summary of the method: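 Readings reflect AlphaScreen signal from monomethyl-H3K9 antibody detection. HMT at 20 nM; substrate b-H3K9 500 nM; cofactor SAM 20 uM; 2 h RT reaction; compounds tested as titrations in qHTS with 15 min preincubation.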
% is set by controls: 0 for no effect and ±100 for the full control effect; potency is the fitted concentration of half-maximal effect; tags give direction and shape of the fitted curve.

Chain of UniProt Q96KQ7 (Q96KQ7 whole entry, looked up): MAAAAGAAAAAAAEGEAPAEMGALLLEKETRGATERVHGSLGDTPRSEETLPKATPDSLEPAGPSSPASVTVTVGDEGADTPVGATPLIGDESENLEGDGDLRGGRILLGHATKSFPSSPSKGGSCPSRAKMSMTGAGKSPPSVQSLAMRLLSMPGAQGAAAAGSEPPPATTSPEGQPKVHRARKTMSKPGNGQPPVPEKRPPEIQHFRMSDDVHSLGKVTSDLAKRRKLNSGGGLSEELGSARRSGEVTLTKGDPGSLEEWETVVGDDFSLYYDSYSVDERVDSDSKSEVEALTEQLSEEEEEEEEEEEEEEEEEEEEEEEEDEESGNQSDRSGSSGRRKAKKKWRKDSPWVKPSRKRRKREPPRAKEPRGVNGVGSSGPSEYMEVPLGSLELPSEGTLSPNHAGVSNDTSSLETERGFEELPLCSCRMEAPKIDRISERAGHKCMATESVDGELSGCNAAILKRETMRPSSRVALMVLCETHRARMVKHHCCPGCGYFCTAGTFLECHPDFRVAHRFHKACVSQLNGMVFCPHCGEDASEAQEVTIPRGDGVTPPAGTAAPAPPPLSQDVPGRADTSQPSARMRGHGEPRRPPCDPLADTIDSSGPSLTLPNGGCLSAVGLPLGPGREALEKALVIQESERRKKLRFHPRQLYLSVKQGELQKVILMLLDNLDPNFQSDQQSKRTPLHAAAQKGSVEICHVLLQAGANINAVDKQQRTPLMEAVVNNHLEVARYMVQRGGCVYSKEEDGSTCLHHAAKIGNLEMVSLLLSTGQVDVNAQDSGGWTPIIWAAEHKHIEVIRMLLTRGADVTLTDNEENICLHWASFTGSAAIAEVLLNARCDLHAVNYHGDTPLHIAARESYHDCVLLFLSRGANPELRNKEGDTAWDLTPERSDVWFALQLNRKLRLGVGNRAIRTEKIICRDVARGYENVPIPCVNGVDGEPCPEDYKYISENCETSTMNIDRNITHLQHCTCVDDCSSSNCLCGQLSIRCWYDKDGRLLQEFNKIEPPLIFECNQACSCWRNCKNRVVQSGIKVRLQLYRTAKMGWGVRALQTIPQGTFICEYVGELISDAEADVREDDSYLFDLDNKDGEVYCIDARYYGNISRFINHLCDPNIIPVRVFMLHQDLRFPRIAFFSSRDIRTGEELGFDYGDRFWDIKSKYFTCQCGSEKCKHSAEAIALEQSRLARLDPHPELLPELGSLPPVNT

| SMILES | Potency | activity, negative = inhibition |
| --- | --- | --- |
| Cc1cccn2c(=O)c(/C=C(\C#N)c3nc4ccccc4s3)c(Oc3ccc(Br)cc3)nc12 | inconclusive: 0.199 µM [inhibitor, full curve, poor fit] | – |
| CSc1nc(NCC(C)O)c2c3c(sc2n1)CN(C)CC3 (configuration not stated) | inconclusive: 79.4 µM [inhibitor, single point] | – |
| Cn1c(=O)oc2cc(S(=O)(=O)CCC(=O)NCCc3ccccc3)ccc21 | inactive | – |
| O=C(NCc1ccccc1F)C1CCN(Cc2cc3ccccc3n2Cc2cccc(Cl)c2)CC1 | – | inactive: -1.14% |
| COc1ccc(C2=NS(=O)(=O)N(C)C(C(=O)Nc3ccc(F)cc3F)=C2)cc1 | inconclusive: 70.8 µM [inhibitor, single point] | – |
| Cc1[nH]n(-c2ccc([N+](=O)[O-])cc2)c(=O)c1C=NCCc1c(C)[nH]c2ccccc12 | – | inactive: -9.51% [at 102 µM] |
| Cc1ccc(C(=O)CSC2=NC(N)=C(C#N)C3(CCCCC3)C2C(N)=O)cc1 (configuration not stated) | active: 39.8 µM | – |
| COc1cccc(/C=N/c2oc(-c3ccccc3)cc2C#N)c1O | – | inactive: -49.8% |
| O=C1C=C(NCc2ccc(Cl)cc2)CC(c2ccco2)C1 (configuration not stated) | – | inactive: 0.482% |
| O=C1CCC/C(=N\NC(=O)NC2CCCCC2)C1 | inconclusive: 89.1 µM [inhibitor, partial curve, poor fit] | – |
| Cc1cccc(/C=N/Nc2cc(N3CCOCC3)nc(N3CCOCC3)n2)c1 | inconclusive: 3.55 µM [inhibitor, single point] | – |
| O=[N+]([O-])c1ccc(CSc2nnc(SCc3ccccc3)s2)cc1 | inconclusive: 25.1 µM [inhibitor, single point] | – |
| CC1(CCc2ccccc2)NC(=S)N(c2ccc(Cl)cc2)N1 (configuration not stated) | active: 10 µM | – |
| COc1ccc(C2(C)NC(=O)N(CC3CCCCC3)C2=O)cc1 (configuration not stated) | inconclusive: 39.8 µM [inhibitor, single point] | – |
| CCCNC(=O)c1csc2c1CCCCC2 | – | inactive: 14.6% |
| Cc1ccc(S(=O)(=O)N(C)C(C)CCc2ccco2)cc1 (configuration not stated) | – | inactive: 12.3% [at 12.7 µM] |
| COc1cccc(C(=O)NC(=O)Nc2ccc(-n3nc(C(F)(F)F)cc3C(F)(F)F)cc2)c1 | – | inactive: -30.7% |
| O=C(c1cc2nc(-c3ccco3)cc(C(F)(F)F)n2n1)N1CCN(Cc2ccccc2)CC1 | inconclusive: 3.16 µM [inhibitor, partial curve, poor fit] | – |
| O=C(Nc1nonc1NC(=O)c1cccs1)c1cccs1 | inconclusive: 31.6 µM [inhibitor, partial curve, poor fit] | – |

| SMILES | Potency | activity, negative = inhibition |
| --- | --- | --- |
| Cc1cc(C)n(-c2nnc(Nc3ccc(C(C)C)cc3)c3ccccc23)n1 | – | inactive: 35.9% |
| O=C(CNC(=O)/C(=C/c1ccccc1)NC(=O)c1ccc(Br)cc1)OCc1ccccc1 | inconclusive: 10 µM [inhibitor, partial curve, poor fit] | – |
| CCN1C(=O)[C@H]2[C@H]3[C@H](O)[C@H](O)C/C(=N\O[C@H](C)c4cn([C@H](CO)Cc5ccccc5)nn4)[C@@H]3CC[C@H]2C1=O | inconclusive: 89.1 µM [inhibitor, single point] | – |
| Fc1ccc(Nc2c3c(nc4nncn24)CCC3)cc1 | inconclusive: 20 µM [inhibitor, partial curve, poor fit] | – |
| O=C(Cn1nnc2ccccc2c1=O)NCc1ccco1 | inconclusive: 89.1 µM [inhibitor, partial curve, poor fit] | – |
| Cc1ccc2nc(-c3ccc(NC(=O)C(F)(F)F)cc3)sc2c1 | – | inactive: -36.5% |
| COc1ccc(OCc2n[nH]c(=S)o2)cc1 | inconclusive: 1.78 µM [inhibitor, partial curve, poor fit] | – |
| CC(C(=O)Nc1ccc(Br)cc1)N(C)CC(=O)NCc1ccco1 (configuration not stated) | active: 8.91 µM | – |
| CC(=O)c1c(Nc2cccc(F)c2)oc(C)cc1=O | – | inconclusive: -90% [inhibitor] |
| O=[N+]([O-])c1ccc2[nH]c(O)c(N=NC(=S)Nc3cccnc3)c2c1 | – | inactive: 17.2% [at 12.7 µM] |
| CCOC(=O)/C(=N/Nc1ccc(OC)cc1)N1CCCc2ccccc21 | active: 22.4 µM | – |
| CC(=O)Nc1ccc2c(c1)ncn2-c1ccccc1 | inconclusive: 50.1 µM [inhibitor, partial curve, poor fit] | – |
| Cc1nc2c(c(C)nn2-c2ccccc2)c(C)c1CCC(=O)Nc1ccc(F)cc1 | – | inactive: 13.8% |
| O=C(CCNC(=O)c1ccc(Cl)cc1)Nc1cccc(S(=O)(=O)N2CCCCCC2)c1 | inconclusive: 79.4 µM [inhibitor, partial curve, poor fit] | – |
| COc1cc(Nc2nc(SCc3cccc(Cl)c3)nc3ccccc23)cc(OC)c1 | – | inactive: 36% |
| O=C(NNc1ccc([N+](=O)[O-])cc1)C1CC2CCCC(C1)C2=O (configuration not stated) | – | inactive: -11.8% [at 0.0925 µM] |
| Cc1cccc(NC(=O)Nc2ccc(Cl)cc2)n1 | – | inactive: -1.8% [at 102 µM] |
| CN(C)CCCN(CCCNC(=O)/C=N/O)Cc1ccccc1 | inconclusive: 31.6 µM [inhibitor, single point] | – |
